The record followed here is the RNAGym collection of RNA variant scans (doi:10.1093/nar/gkz1192).

The source gives no read counts; variants with many changes may rest on few reads.

B1: CPEB3 Ribozyme (parent)
chain: UAACAGGGGGCCACAGCAGAAGCGUUCACGUCGCAGCCCCUGUCAGAUUCUGGUGAAUCUGCGAAUUCUGCUGUAUAUCUC

This data set covers variants of B1. Kind of data set: self-cleavage, relative activity (ratio to wild type); higher = more cleavage; in vitro, sequencing. In a few lines:
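CPEB3 self-cleaving ribozyme mutant libraries were made by rounds of error-prone PCR, barcoded, and transcribed in vitro with T7 RNA polymerase for 5 hours at 37°C. Cleavage occurred during transcription and a 15 min DNase I step before EDTA stop. RNAs were reverse transcribed with template switching and Illumina-sequenced, with DNA sequencing mapping barcodes to variants. Relative activity is the variant's cleaved/total read fraction divided by wild type's (minimum 5 reads), averaged across three batches.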
In the case of U31A A56G U78C, the self-cleavage came out at 0.33. As for A35G C50U A57G A75G, the figure is 1.32; as for A35G A77U U78C, 1.23. The same measure for A35G A45G A57G U72C: 1.22; for G33U C39U A57G: 0.18; for U31A A64G C71A: 0.13.

For the variant C34U C38U U49C U69C, the self-cleavage came out at 0.17. As for C34U A35G C68U U78C, the figure is 0.27; as for A35G U43A U51A C81A, 1.31. Take A35G A45U A77G: the self-cleavage was 1.25.

Regarding C34G A35G A45G U66C U67C, the self-cleavage is 0.09. As for U31C U41A U48C U60C G63U A65G, the figure is 0.12. As for U31C U41C A56G G63C U76A, the figure is 0.69; as for C32U A65G A75U, 0.17.

As to A35C U51C U60C, the self-cleavage is 0.24.

On to G33U G46U A56G A64U, for which the self-cleavage is 0.24. Take U31A U72A U76A U78C: the self-cleavage amounted to 0.15.

Take C32U U54G G55U G61A A64G U78C: the self-cleavage is 0.11. Consider C32U A47G U72C U80C, for which the self-cleavage turned out to be 0.2.

In the case of G33C A64G U72A, the self-cleavage was 0.13. For the variant A35G U41A A45U A64G U72C, the self-cleavage came out at 0.15. As for U31A G33A A35U U76C, the figure is 0.08. As for G33U A45U U49A A77G, the figure is 0.12; as for C32A A35U U43C A45C U72A, 0.15; as for C32U A56G U72C U80C, 0.09. The same measure for G33A U51A A65G U72A U80C: 0.06.

As for U31A G33A U41A U49C U54A A57G U58C, the self-cleavage was 0.16. As for U31A C34U A77G, the figure is 0.07. As for U31C A35G U72G, the figure is 1.51; as for C32U C34A U48C U67A, 0.16. On to U31C C39U U60A A75G U78A, for which the self-cleavage amounted to 0.1. The same measure for G33A G36A U43A U49C A77U: 0.07. The same measure for G33U U43C A56G U60C U74A: 0.15. C32U U41A U49C U54C U58C: the self-cleavage came out at 0.12.

As to U31C C39U U48A, the self-cleavage turned out to be 0.12.

As to U31C U60A U80C, the self-cleavage was found to be 0.49. The same measure for A35G U43C A45G U60C U74A U80C: 1.29; for U31C A45U U49G A56G: 0.09; for A35G U43C U49G U76C: 0.92. The same measure for A35G G53C U80A: 1.28; for G33A A56U U58C U69C: 0.15; for U31C U41C U48C A57G: 0.78. On to U31C A47G A56G A77G, for which the self-cleavage was 0.47.

Turning to A35G C40U U54C A57G, the self-cleavage turned out to be 1.15. The same measure for A35G C71A U80C: 1.13. As for U31G U41G A45G, the figure is 0.42; as for G33C U49A U51A, 0.07. The same measure for A35G U41A U54C C59U: 0.18. Consider G33U A35U U60C U66C, for which the self-cleavage is 0.16. The same measure for U31C U41C A57G U78A: 1.1; for U31C A35U U60A A64U: 0.09. As for C32U U41C U43C U76A A77C, the figure is 0.04; as for C34U U60C U67C, 0.07; as for U31A U49C A77U, 0.22. C32U C37U U48C U58C U60A: the self-cleavage worked out at 0.12. As for U31C A35U A45G U69C, the figure is 0.08; as for U31C G36A A65G, 0.16.

A35G G36A U58C G61A C68A U69C: the self-cleavage came to 0.18. As for U31G A45G U51C A64G A75G, the figure is 0.14; as for U31G A57G U60C, 0.15. As for A35G G52U A57G A64G, the figure is 1.31; as for A35C U54A U72C A75U, 1.2; as for U31A C34U U49C G63A A64G, 0.1. As for G33C A56G U72C, the figure is 0.73; as for C32U U48C U80C, 0.21; as for U31C A35U U41A U58G, 0.19. In the case of G33U U72C U78C, the self-cleavage came out at 0.25. As for A35G A47G U80C, the figure is 1.23. On to A35G C44U U69C U72A, for which the self-cleavage was determined as 0.13.

Take U31C U41A U43G A77U: the self-cleavage was determined as 0.21. As for U31C U41C A45G A64U, the figure is 0.2; as for C34A G61A U69C, 0.08; as for U31A G33U U41C C44U U78C, 0.16. As for C32U A35U A64U, the figure is 0.13. As for U31A C40A A57G, the figure is 0.49; as for G33A U49A C68A, 0.05. U31A U48C G63A A64C: the self-cleavage turned out to be 0.32. The same measure for U31C C40U U76C: 0.76. As for A35G C40U U49C U51A U66A U72C, the figure is 0.39; as for U31C U60C U72A, 0.13; as for U31C U48C U78C U80A, 0.36. The same measure for C32U U41A G46U U54C U66C U76C A77G: 0.04; for G33A U67A U78C: 0.29. For U31C C34U A47U A75U, the self-cleavage worked out at 0.09. As for A35G U43C A56G G73A, the figure is 1.25. The same measure for U31G U49C U78C: 0.4; for G33A A35G C71U: 0.05; for A35G G55U U60C U66C U72A: 0.67. As for U31A C32U U80A, the figure is 0.45; as for A35G U41A C62U U78C, 0.15. Take U31C C34U U41A U54A U67C: the self-cleavage worked out at 0.09. Take U31C A45U A56C U58C A65G U69C: the self-cleavage was found to be 0.13. As for C32G A35G U74C, the figure is 0.13.

A35G U41A G61A: the self-cleavage was found to be 0.16.

In the case of G33A C38U C62G, the self-cleavage was determined as 0.22. As for U31C A45G A57U U76C, the figure is 0.18; as for U31C U43A A64G U67C U69A, 0.19.

On to A35G A47U U67A G73A, for which the self-cleavage amounted to 0.79. As for U31G G52A U69C C79U, the figure is 0.33. The same measure for A35C U48A C50U: 0.32; for G33A U67G U69C: 0.15; for C34G U72C U78C: 0.25. As for G33U U67G U74C, the figure is 0.13. Regarding G33A A45G A47G U54C A75U U78C, the self-cleavage was determined as 0.06.

A35G A47G A77G: the self-cleavage is 1.28. Turning to U31G A64G U74C, the self-cleavage came out at 0.67. For A35G U41A G63U, the self-cleavage amounted to 0.32. As for C32U A64U U69C C81U, the figure is 0.03; as for U31C U58A U72A, 0.18. The same measure for A35C U54C A64G: 0.45; for U31A A56G U76G U78C: 0.23; for U31C C34U U48C U51C A57G: 0.14.

On to C34G A57G U58C, for which the self-cleavage is 0.18. As for C32U A45G U51A A57G U69C, the figure is 0.11; as for C32U A45G U51G, 0.25; as for C32G U43A A56G U58C A75U, 0.07.

On to A35G U43C A45U C50G U54A U78A, for which the self-cleavage was 0.47. As for A35G A47G G53A U60C C71A A77G, the self-cleavage amounted to 0.71.

Consider U31C A35G A57U, for which the self-cleavage is 0.83. As for G33C U43C A56G A65U, the figure is 0.39; as for U31C U69C U76C, 0.26; as for U31C A45U A64U U67C U72C U78A, 0.11. U31A C40U U49A U51A A56G G61C: the self-cleavage is 0.1.

As to G33U U67G U78A U80A, the self-cleavage turned out to be 0.13. As for C34G U41C U51C U72C U78C, the figure is 0.08; as for A35C U41A U54A, 0.24; as for C32G U43A A47U A64U U72C, 0.06. Consider U31A U41A U72C, for which the self-cleavage is 0.22.

Consider U31A U51C U54C, for which the self-cleavage stood at 0.41.

For the variant A35G A45U A47U U54C U80A, the self-cleavage worked out at 0.84. As for A35C A45C U51C U66C, the figure is 0.12; as for U31A U49A A65U A77U, 0.09.

As to U31C A64U U80C, the self-cleavage turned out to be 0.3. The same measure for G33A C62A A65U: 0.31; for A35C A45C U66C: 0.19. The same measure for U31C A64G A65G: 0.1. As for G33A A35U C62U, the figure is 0.22. U31A A47G U51A: the self-cleavage was 0.68. As for U31C C39U U54C C62U U80C, the figure is 0.15; as for A35G U43C U54A G61U A64G U72C, 0.52. The same measure for U31A U74C A75U: 0.9; for U31A U74C A75G: 0.63. As for A35G U43C A56G U69C, the figure is 0.08.

As to C32A A64G C79U, the self-cleavage is 0.22. The same measure for G33A A35U U49G U51C U72A: 0.08. The same measure for U31C U58C U74C: 0.53; for A35G U43C U49A U54A: 0.93.

Take C32U G46A A56G C62U U66C U80A: the self-cleavage came out at 0.19.

Consider A35G A47G C81A, for which the self-cleavage worked out at 1.51.

As to A35G A56U U66A, the self-cleavage is 1.08.

Take A35G A45U U54C: the self-cleavage came out at 1.24.

Take C32A C38A A45G: the self-cleavage amounted to 0.19. Consider C34A A35U C40U U48C U54C, for which the self-cleavage amounted to 0.07.

As for G33C A35G U41C U43C U51G G70A U72A, the self-cleavage is 0.09. As for G33U U41A U49A U54C A56G U78C, the figure is 0.12; as for C34G U41C U80C, 0.65. As for U31C A35U A64U, the figure is 0.15; as for G33A U41A A56U, 0.41.

U31A A56U U60A: the self-cleavage turned out to be 0.15. The same measure for C32A C34G U60C: 0.12; for A35G U41C A77G: 1.27; for U31A G33A A45G G52U U66C U80C: 0.09. As for U31C U51G G52U, the figure is 0.75; as for G33U C59A U76G, 0.05. As for C32U C37U U49C U51A U72C, the figure is 0.26. For C32U C40A A57G, the self-cleavage stood at 0.12. On to A35G A56G A64U U80A, for which the self-cleavage came to 1.18.
